From the supplement of paper PMC12217912
This is one part of the list. Sequences were assembled here from the parent chain. Inactive controls read about 0.05.

B1: TEV protease; numbered along this chain (parent)
chain: MGESLFKGPRDYNPISSSICHLTNESDGHTTSLYGIGFGPFIITNKHLFRRNNGTLVVQSLHGVFKVKDTTTLQQHLVDGRDMIIIRMPKDFPPFPQKLKFREPQREERICLVTTNFQTKSMSSMVSDTSCTFPSGDGIFWKHWIQTKDGQCGSPLVSTRDGFIVGIHSASNFTNTNNYFTSVPKNFMELLTNQEAQQWVSGWRLNADSVLWGGHKVFMVKPEEPFQPVKEATQL

Variants of: B1
Experiment: raw area under fraction-flipped curve 0-4 h after induction (AUC4h, not background-subtracted), DNA-recorder readout of cleavage of the substrate (dimensionless); higher = more cleavage of the substrate by the protease variant
Conditions: temperature: 34 °C; time window: 0-4 h after rhamnose induction
Procedure: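 In vivo DNA recorder in E. coli TOP10(DE3) ΔrhaA at 34 °C. Each TEVp single-site mutant (parent TEVp 0) is paired with a single-site variant of the 7-mer TEVs (canonical ENLYFQ|S). The substrate sits between flexible linkers in a Bxb1-sfGFP-TEVs-SsrA fusion, so cleavage stabilises Bxb1 and speeds flipping of a recombination array, read by NGS. The value is the raw area under the fraction-flipped curve over 0-4 h after rhamnose induction (AUC4h), with ≥20 reads per time point. It is not background-subtracted; inactive controls average about 0.047.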
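Also: Bxb1 expression induced with 0.2% (w/v) L-rhamnose at OD600 near 0.5, cultures sampled hourly, flipped fraction per protease–substrate barcode pair counted by paired-end Illumina sequencing.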

Variant	area with substrate ENLAFQS	area with substrate ENLCFQS	area with substrate ENLEFQS	area with substrate ENLFFQS	area with substrate ENLGFQS	area with substrate ENLHFQS	area with substrate ENLIFQS	area with substrate ENLKFQS	area with substrate ENLLFQS	area with substrate ENLNFQS	area with substrate ENLRFQS	area with substrate ENLSFQS	area with substrate ENLVFQS	area with substrate ENLWFQS	area with substrate ENLDFQS	area with substrate ENLPFQS	area with substrate ENLQFQS	area with substrate ENLTFQS	area with substrate ENLMFQS
M122P	0.0635	0.0835	0.0355	0.0836	0.0745	0.0806	0.063	0.0864	0.0682	0.0798	0.0768	0.0651	0.0765	0.015	–	–	–	–	–
M122K	0.069	–	0.0601	0.109	–	–	–	–	0.0771	0.0818	–	0.0516	–	–	0.0596	0.0501	0.0643	0.0339	–
M122Y	0.0669	0.0688	–	0.0703	0.0786	–	–	0.0803	0.0757	0.0728	0.0843	0.0615	–	–	0.0706	0.0585	0.0762	–	–
E108N	0.0586	0.0575	0.0689	0.0772	0.0657	0.0532	0.0596	0.0513	0.0481	0.0499	0.104	0.0573	0.0597	–	0.0518	0.0611	0.0327	–	–
T115C	0.0721	0.0685	0.0609	0.0882	–	0.0701	–	–	0.0484	0.0685	0.0601	0.0597	–	–	0.0623	0.0662	0.04	–	0.0907
Q146N	0.0702	–	0.052	0.0921	–	0.0817	–	–	–	0.0283	0.0747	0.052	–	0.0654	0.0624	–	0.0828	–	–
Q105N	0.0747	–	0.054	0.0868	–	0.0434	–	0.0787	–	0.0724	0.0664	0.051	–	0.0629	0.053	0.0516	0.0728	0.0767	0.0733
Q105K	0.0575	0.0797	0.0508	0.0877	–	0.123	–	0.07	–	0.0631	0.0714	0.0685	0.0808	0.0631	0.0609	0.0803	0.0885	0.0591	0.0771
R109C	0.0727	–	–	0.0647	–	0.0748	0.0808	0.0758	–	0.0611	0.0443	–	0.0973	0.0659	–	0.0568	–	–	–
R109P	0.0668	0.0843	0.0756	0.0858	0.0692	0.0674	0.0833	0.072	0.0743	0.0668	0.0787	0.0695	–	0.0929	0.0521	0.0514	0.0486	0.0735	0.0604
F95S	0.0581	0.0716	0.0643	0.0711	–	0.0618	0.0534	0.0646	–	0.0642	0.0601	0.0724	0.0699	0.0608	0.0528	0.0505	0.0601	–	–
T132F	0.0536	–	–	0.0739	–	–	0.0646	0.0541	0.0625	0.0162	–	0.0629	0.0562	0.0697	0.0558	0.0594	0.0557	–	–
T132Y	0.0789	–	0.0346	0.0484	–	0.0595	–	0.0655	–	0.0689	–	0.0627	–	–	0.0595	0.0071	–	–	–
T132G	0.0744	–	–	0.0784	–	0.0703	0.088	0.0663	–	0.0668	–	0.0601	–	–	–	0.0227	–	0.0706	–
S135I	0.0657	–	–	0.0725	–	0.0671	0.0723	0.0662	0.0613	0.0681	0.0288	0.0618	0.056	0.0603	0.0643	0.0642	0.07	–	–
S123T	0.0713	–	0.0619	–	–	–	–	0.0873	0.0871	–	0.0911	0.0743	–	0.0597	0.0781	0.0768	0.0644	0.097	0.0864
D149S	0.0586	–	–	0.0808	0.0629	0.0698	0.0903	0.0655	–	0.0647	0.07	–	–	–	0.0565	0.0626	–	–	0.0884
D149Q	0.0669	–	0.0681	0.071	–	–	0.0767	0.0677	–	0.0772	0.0684	0.0629	0.072	0.0404	0.0702	0.0803	–	0.0629	–
F140P	0.0521	0.0603	–	0.0795	–	0.055	–	0.0615	0.0493	0.0687	–	0.0558	0.0463	–	0.0674	0.0591	0.0906	–	–
F140M	0.0594	0.0664	–	0.0818	–	–	–	0.0695	–	0.0566	0.0702	–	–	–	0.0506	0.0791	0.0469	–	–
T159E	0.0724	–	0.0652	0.111	–	–	0.085	0.0837	–	0.0574	0.0804	0.0674	0.068	–	–	0.0548	0.0544	–	–
I164H	0.0631	0.0534	0.0517	0.0491	–	0.0545	0.0554	0.0505	0.0667	0.0551	–	0.0497	0.0538	–	0.0036	–	0.0548	–	–
G166S	0.0498	0.0383	0.0548	0.0651	–	0.0533	–	0.0569	0.0569	0.0553	–	0.0411	–	0.0459	–	0.0559	0.0495	–	0.0499
G166Q	0.0431	0.0442	0.047	0.058	–	0.0451	–	0.0528	–	0.0529	–	0.051	–	–	0.0619	0.0625	–	–	–
K100T	0.0663	0.0774	–	0.0976	–	0.0784	0.114	0.09	–	0.0375	–	0.0533	–	0.0787	0.0429	–	0.0566	–	–
E103Y	0.0736	–	–	–	–	0.0681	0.0826	0.0775	–	0.0644	–	–	–	–	–	0.0628	–	–	–
S121E	0.0713	0.0887	0.0734	0.108	0.0548	0.0399	0.0556	–	0.0815	0.0695	–	0.0571	–	–	–	–	0.0638	–	0.0711
S121A	0.0602	–	–	0.0741	–	–	–	0.0808	–	0.0669	0.0609	0.0733	–	0.0706	0.069	0.0584	0.0663	–	0.0778
S121Y	0.076	–	–	0.0807	0.0682	–	–	–	–	–	–	0.0653	0.117	0.0839	–	0.0641	0.0424	–	–
